{
  "source": "patent US20250051471A1",
  "about": "“Anti-Abcb1 Antibodies” (WILLIAM ROBERT ARATHOON LIVING TRUST DATED AUGUST 29, 2016, priority 2021, published 2025)",
  "key": {"MES-SA/Dx5/ADR cells": {"test_system": "MES-SA/Dx5/ADR cells", "experiment": "In vivo anti-tumor effects on MES-SA/Dx5/ADR multidrug resistance xenograft model", "parameters": "species or system athymic nude mice", "method": "Prior to implant cells were washed three times with D-PBS and resuspended in the same.\nPaclitaxel or vehicle was dosed four hours after the antibody.\nStatistics: Tumor volume and body weights were compared between different experimental groups using exact one-way analysis of variance (ANOVA). Kaplan-Meier survival curves were compared between different treatment groups using the log-rank (Mantel-Cox) test. Statistical analyses were performed using Graph Pad Prism (GraphPad, San Diego, CA, USA) software. The level of significance was set at p<0.05 for all analyses."}, "human Red Blood Cells": {"test_system": "human Red Blood Cells", "experiment": "Antibody binding to human red blood cells by flow cytometry", "type": "cell-based", "conditions": "FIG. 32", "method": "Antibody binding to human and cynomolgus RBC was assessed by flow cytometry. Normal human and cynomolgus whole blood was obtained from BiolVT. RBC were prepared by centrifugation of whole blood aliquots (0.5 mL) for 5 min at 500xg. Supernatant (plasma) was removed, and RBC washed 3 times in D-PBS+1 mM EDTA. After the final wash, the RBC were resuspended in D-PBS+1 mM EDTA to a final volume of 0.5 mL. Washed RBC were then diluted in flow cytometry buffer (D-PBS+2% FBS+0.05% sodium azide) to 2% and dispensed at […] into 96-well plates. An equivalent volume ([…]) of antibody serially diluted in flow cytometry buffer to 2× final was added to the RBC, and the mixture incubated for 1 hour at room temperature. Next, RBC were washed 3 times with flow cytometry buffer and resuspended in 50 μL of Alexa Fluor®647 conjugated Fab fragment goat anti-human IgG diluted 1:200 in flow cytometry buffer. After 20 minutes at room temperature RBC were washed twice, resuspended in flow cytometry buffer and analyzed using an Invitrogen™ Attune™ NXT flow cytometer. […] Left panel, RBC are gated (R1) based on forward and side scatter. Middle panel, a second gate (R2) is applied to eliminate any remaining doublets or aggregates. Right panel, fluorescence of the R2 gated cells is assessed and a final gate (R3) is set using unstained RBC. Cells falling in the R3 gate are defined as “positive” for binding and reported as the percent (of R2 gated cells) that fall in the R3 gate. The results are presented at percent positive which represents the percent of RBC in the R3 gate."}, "A2780ADR cells [1]": {"test_system": "A2780ADR cells", "experiment": "In vivo anti-tumor effects on A2780ADR multidrug resistance xenograft model", "parameters": "species or system athymic nude mice", "method": "Prior to implant cells were washed three times with D-PBS and resuspended in the same. Resuspended cells were mixed with an equal volume of Matrigel and xenografts were established by s.c. injection of 0.5×10^6 tumor cells into 5-8-week-old female athymic nude mice. Tumors were measured three times a week using a calibrated digital caliper, and tumor volumes (TV) were calculated as per the formula: TV=/*L*S*S, where L is the long axis and s is the short axis of the tumor.\nAntibody and paclitaxel (or vehicle) were administered i.p. two times per week for two weeks. Paclitaxel or vehicle was dosed four hours after the antibody."}, "DX5 cells": {"test_system": "DX5 cells", "experiment": "FACS binding to DX5 WT, CD47 KO and ABCB1 KO cells", "type": "cell-based, human", "conditions": "DX5 WT, CD47 KO and ABCB1 KO cells", "from_the_text": "The mono arm antibodies each have only one binding valency for the target. The wild-type DX5 (DX5 WT) cells express both ABCB1 and CD47 antigens.\nThe mono arm antibodies only have one binding valency for the target.\nThe mono arm antibodies each have only one binding valency for the target.\nFIGS. 19A-19C show the binding of bispecific humanized ABCB1XCD47 antibodies KB1-1418, KB1-1419 and KB1-1420 to wild-type Adriamycin-resistant DX5 cells, CD4 KO DX5 cells and ABCB1 KO (B1 KO) DX5 cells."}, "A2780ADR cells [2]": {"test_system": "A2780ADR cells", "experiment": "Therapeutic effect against human A2780ADR xenograft tumors in nude mice (Example 10)", "type": "in vivo, athymic nude mice", "method": "A2780ADR cells were grown in RPMI-1640 supplemented with 10% FBS and 100 nM doxorubicin. Prior to implant cells were washed three times with D-PBS and resuspended in the same. Resuspended cells were mixed with an equal volume of Matrigel and xenografts were established by s.c. injection of 0.5×10^6 tumor cells into 7-8-week-old female athymic nude mice (Charles River).\nTumors were measured three times a week using a calibrated digital caliper, and tumor volumes (TV) were calculated as per the formula: TV=/*L*S*S, where L is the long axis and s is the short axis of the tumor. When mean tumor volumes reached 100-200 mm^3, mice were randomized into 6 treatment groups (n=6): (i) Isotype control hIgG1, 3 mg/kg, (ii) Isotype control hIgG1, 3 mg/kg plus paclitaxel, 20 mg/kg, (iii) 5f9 human IgG1 antibody, 3 mg/kg, (iv) 5f9 human IgG1 antibody, 3 mg/kg plus paclitaxel, 20 mg/kg, (v) 15D3 HIR2/KT14 KbR1/B1.89v1.huL1 (KV2) hmz LC, 3 mg/kg, (vi) 15D3 HIR2/KT14 KbR1/B1.89v1.huL1 (KV2) hmz LC, 3 mg/kg plus paclitaxel, 20 mg/kg.\nAntibody and paclitaxel (or vehicle) were administered i.p. two time per week for two weeks. […]\nTumor volumes and body weights were measured twice a week. […] Tumor volume is calculated as per the formula TV=/*L*S*S where L is the long axis and S is the short axis of the tumor. Body weights were recorded before treatment started and were monitored throughout the study. […]"}, "[3]": {"test_system": "human MES-SA/DX5 multidrug resistant cell model target", "experiment": "Flow cytometry-based ADCC assay with human PBMC effector cells", "type": "cell-based"}},
  "note": "“Also recorded” adds a separate entry of the source.",
  "data": [
    {"molecule": "KB1-1420: humanized ABCB1XCD47 bispecific antibody, HIR2/KbR1 Fc, B1.89v1.huL1(KV2) common light chain (antibody) heavy 1: EVQLVESGGVVVQPGGSLRLSCAASGFTFSRYTMSWVRQAPGKGLEWVATISSGGGNTYYPDSVKGRFTVSRDNSKNSLYLQMNSLRTEDTALYYCARYGAGDAWFAYWGQGTLVTVSSASTKGPSVFPLAPSSKSTSGGTAALGCLVKDYFPEPVTVSWNSGALTSGVHTFPAVLQSSGLYSLSSVVTVPSSSLGTQTYICNVNHKPSNTKVDKRVEPKSCDKTHTCPPCPAPELLGGPSVFLFPPKPKDTLMISRTPEVTCVVVDVSHEDPEVKFNWYVDGVEVHNAKTKPREEQYNSTYRVVSVLTVLHQDWLNGKEYKCKVSNKALPAPIEKTISKAKGQPREPQVCTLPPSREEMTKNQVSLSCAVKGFYPSDIAVEWESNGQPENNYKTTPPVLDSDGSFVLVSKLTVDKSRWQQGNVFSCSVMHEALHNHYTQKSLSLSPG heavy 2: QVQLVQSGAEVKKPGASVKVSCKASGYTFTNYNMHWVRQAPGQRLEWMGTIYPGNDDTSYNQKFKDRVTITADTSASTAYMELSSLRSEDTAVYYCARGGYRAMDYWGQGTLVTVSSASTKGPSVFPLAPSSKSTSGGTAALGCLVKDYFPEPVTVSWNSGALTSGVHTFPAVLQSSGLYSLSSVVTVPSSSLGTQTYICNVNHKPSNTKVDKRV[human IgG1 Fc with changes omitted] light: DIVMTQSPLSLPVTPGEPASISCRSSQTIVHSNGNTYLEWYLQKPGQSPQLLIYKVSKRFSGVPDRFSGSGSGTDFTLKISRVEAEDVGVYYCFQASHFPRTFGQGTKLEIKRTVAAPSVFIFPPSDEQLKSGTASVVCLLNNFYPREAKVQWKVDNALQSGNSQESVTEQDSKDSTYSLSSTLTLSKADYEKHKVYACEVTHQGLSSPVTKSFNRGEC", "values": [
      {"measurement": "single agent efficacy", "setting": "MES-SA/Dx5/ADR cells", "result": "efficacious as a single agent"},
      {"measurement": "survival", "setting": "MES-SA/Dx5/ADR cells; with and without paclitaxel", "result": "significantly enhances survival"},
      {"measurement": "enhancement of paclitaxel-mediated cell killing", "setting": "MES-SA/Dx5/ADR cells; with paclitaxel", "result": "enhances paclitaxel-mediated cell killing"},
      {"measurement": "binding to human red blood cells compared to anti-CD47 monoclonal antibody 5F9", "setting": "human Red Blood Cells", "result": "negligible binding"},
      {"measurement": "effect on tumor growth rates", "setting": "A2780ADR cells [1]; A2780ADR model, Example 9, FIG. 30", "result": "significantly affects tumor growth rates; also recorded: significantly effects tumor growth rates"},
      {"measurement": "single agent activity", "setting": "A2780ADR cells [1]; A2780ADR xenograft", "result": "efficacious as a single agent"},
      {"measurement": "survival", "setting": "A2780ADR cells [1]; A2780ADR xenograft", "result": "significantly improves survival"},
      {"measurement": "enhancement of paclitaxel-mediated cell killing", "setting": "A2780ADR cells [1]; A2780ADR xenograft, with paclitaxel", "result": "enhances paclitaxel-mediated cell killing"},
      {"measurement": "single agent activity", "setting": "A2780ADR cells [1]; A2780ADR xenograft, listed as 15D3 HIR2/KT14 KbR1/B1.89v1.huL1 (KV2) hmz LC", "result": "efficacious; also recorded: significant single agent activity"},
      {"measurement": "dose-dependent single agent activity", "setting": "A2780ADR cells [1]; at 3 and 1 mg/ml doses", "result": "significant dose-dependent single agent activity"},
      {"measurement": "binding to ABCB1 and CD47 antigens expressed on cancer cell surface", "setting": "DX5 cells", "result": "specifically bind"},
      {"measurement": "therapeutic effect against human xenograft tumors", "setting": "A2780ADR cells [2]; four-dose regime, nude mice", "result": "strong therapeutic effect"},
      {"measurement": "effect on subcutaneous ovarian adenocarcinoma tumors combined with paclitaxel", "setting": "A2780ADR cells [2]; plus paclitaxel, compared to isotype control group", "result": "strong therapeutic effect; also recorded: dramatically inhibited the growth"},
      {"measurement": "ADCC dose-response", "setting": "[3]; E:T of 8:1, escalating concentrations", "result": "dose-dependent manner"},
      {"measurement": "target cell death (ADCC) compared to the isotype control", "setting": "[3]; all E:T ratios, 5 and 20 μg/ml", "result": "significantly higher target cell death"}
    ]}
  ]
}
